{
  "source": "the supplement of paper PMC8728848",
  "assay_in_all_cases": "glycan array binding signal (z-score within array); higher = stronger binding",
  "details_in_all_cases": "glycan notation: IUPAC condensed, linker removed",
  "key": {"[1]": {"target": "Gal(b1-3)GlcNAc(b1-2)Man(a1-3)[Gal(b1-3)GlcNAc(b1-2)Man(a1-6)]Man(b1-4)GlcNAc(b1-4)GlcNAc", "in_short": "(§1)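 Columns mapping to the same glycan were averaged after glycan names were converted to IUPAC-condensed notation. The data come from 3228 arrays in the Consortium for Functional Glycomics database, limited to those with an available protein sequence. Binding is reported as a within-array Z-score averaged across arrays of one protein sequence and across linkers.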"}, "[2]": {"target": "Gal(b1-3)GlcNAc(b1-2)Man(a1-3)[Gal(b1-3)GlcNAc(b1-2)Man(a1-6)]Man(b1-4)GlcNAc(b1-4)[Fuc(a1-6)]GlcNAc", "in_short": "as §1"}, "[3]": {"target": "Gal(b1-3)GlcNAc(b1-2)Man(a1-3)[GlcNAc(b1-4)][Gal(b1-3)GlcNAc(b1-2)Man(a1-6)]Man(b1-4)GlcNAc(b1-4)GlcNAc", "in_short": "as §1"}, "[4]": {"target": "Gal(b1-3)GlcNAc(b1-2)[Gal(b1-3)GlcNAc(b1-6)]Man(a1-6)[Gal(b1-3)GlcNAc(b1-2)Man(a1-3)]Man(b1-4)GlcNAc(b1-4)GlcNAc", "in_short": "as §1"}, "[5]": {"target": "Gal(b1-3)GlcNAc(b1-3)Gal(b1-3)GlcNAc", "in_short": "as §1"}, "[6]": {"target": "Gal(b1-3)GlcNAc(b1-3)Gal(b1-4)Glc", "in_short": "as §1"}, "[7]": {"target": "Gal(b1-3)GlcNAc(b1-3)Gal(b1-4)GlcNAc", "in_short": "as §1"}, "[8]": {"target": "Gal(b1-3)GlcNAc(b1-3)Gal(b1-4)GlcNAc(b1-2)Man(a1-3)[Gal(b1-3)GlcNAc(b1-3)Gal(b1-4)GlcNAc(b1-2)Man(a1-6)]Man(b1-4)GlcNAc(b1-4)GlcNAc", "in_short": "as §1"}, "[9]": {"target": "Gal(b1-3)GlcNAc(b1-3)Gal(b1-4)GlcNAc(b1-2)[Gal(b1-3)GlcNAc(b1-3)Gal(b1-4)GlcNAc(b1-6)]Man(a1-6)[Gal(b1-3)GlcNAc(b1-3)Gal(b1-4)GlcNAc(b1-2)Man(a1-3)]Man(b1-4)GlcNAc(b1-4)[Fuc(a1-6)]GlcNAc", "in_short": "as §1"}, "[10]": {"target": "Gal(b1-3)GlcNAc(b1-3)Gal(b1-4)GlcNAc(b1-3)Gal(b1-4)GlcNAc(b1-2)[Gal(b1-3)GlcNAc(b1-3)Gal(b1-4)GlcNAc(b1-3)Gal(b1-4)GlcNAc(b1-6)]Man(a1-6)[Gal(b1-3)GlcNAc(b1-3)Gal(b1-4)GlcNAc(b1-3)Gal(b1-4)GlcNAc(b1-2)Man(a1-3)]Man(b1-4)GlcNAc(b1-4)[Fuc(a1-6)]GlcNAc", "in_short": "as §1"}, "[11]": {"target": "Gal(b1-3)GlcNAc(b1-3)Gal(b1-4)GlcNAc(b1-6)[Gal(b1-3)GlcNAc(b1-3)]Gal(b1-4)Glc", "in_short": "as §1"}, "[12]": {"target": "Gal(b1-3)GlcNAc(b1-3)Gal(b1-4)[Fuc(a1-3)]GlcNAc", "in_short": "as §1"}, "[13]": {"target": "Gal(b1-3)GlcNAc(b1-3)Gal(b1-4)[Fuc(a1-3)]GlcNAc(b1-6)[Gal(b1-3)GlcNAc(b1-3)]Gal(b1-4)Glc", "in_short": "as §1"}, "[14]": {"target": "Gal(b1-3)GlcNAc(b1-3)GalNAc", "in_short": "as §1"}, "[15]": {"target": "Gal(b1-3)GlcNAc(b1-6)Gal(b1-4)GlcNAc", "in_short": "as §1"}, "[16]": {"target": "Gal(b1-3)GlcNAc(b1-6)GalNAc", "in_short": "as §1"}, "[17]": {"target": "Gal(b1-3)GlcNAc(b1-6)[Gal(b1-3)]GalNAc", "in_short": "as §1"}, "Gal(b1-3)GlcNAc6S": {"target": "Gal(b1-3)GlcNAc6S", "in_short": "as §1"}, "[18]": {"target": "Gal(b1-3)[Fuc(a1-4)]GlcNAc", "in_short": "as §1"}, "[19]": {"target": "Gal(b1-3)[Fuc(a1-4)]GlcNAc(b1-2)Man", "in_short": "as §1"}, "[20]": {"target": "Gal(b1-3)[Fuc(a1-4)]GlcNAc(b1-2)Man(a1-3)[Gal(b1-3)[Fuc(a1-4)]GlcNAc(b1-2)Man(a1-6)]Man(b1-4)GlcNAc(b1-4)[Fuc(a1-6)]GlcNAc", "in_short": "as §1"}, "[21]": {"target": "Gal(b1-3)[Fuc(a1-4)]GlcNAc(b1-3)Gal(b1-3)[Fuc(a1-4)]GlcNAc", "in_short": "as §1"}, "[22]": {"target": "Gal(b1-3)[Fuc(a1-4)]GlcNAc(b1-3)Gal(b1-4)[Fuc(a1-3)]GlcNAc", "in_short": "as §1"}, "[23]": {"target": "Gal(b1-3)[Fuc(a1-4)]GlcNAc(b1-6)GalNAc", "in_short": "as §1"}, "[24]": {"target": "Gal(b1-3)[GlcNAc(b1-6)]GalNAc", "in_short": "as §1"}, "[25]": {"target": "Gal(b1-3)[Neu5Ac(a2-6)]GalNAc", "in_short": "as §1"}, "[26]": {"target": "Gal(b1-3)[Neu5Ac(a2-6)]GlcNAc(b1-4)Gal(b1-4)Glc", "in_short": "as §1"}, "[27]": {"target": "Gal(b1-3)[Neu5Ac(b2-6)]GalNAc", "in_short": "as §1"}, "Gal(b1-4)Gal": {"target": "Gal(b1-4)Gal", "in_short": "as §1"}, "[28]": {"target": "Gal(b1-4)GalNAc(a1-3)[Fuc(a1-2)]Gal(b1-4)GlcNAc", "in_short": "as §1"}},
  "note": "This is one part of the list.",
  "data": [
    {"binder": "CC1G-10077 (Coprinopsis cinerea), A8NDT7 (protein) MALNEGVYWIRNSRFTNKVLDLDAANVAKGTSILDFNEHGTFNENHNQLWIVERFQSRDTYLIRSVHSNLVLDLSQGLSANGTPILCWTQHGGTNQQWRIEWVKDDNKTPLYRIVSVATGTAISHNEDDSSAYTVAWSVDDGPKQLWSFDPFVTPLLYRLRVKSTSRVLDLAAASADNGTLALAWEQHTAITKRNQLWWLPYRSGAEEYTIQCLETSTVADLSGGNSGNGTPIYGWQSHGGRNQQWKFEPTSDSGDYYHIKNVEGGSVMDAYMNDSQKRVGGWSNNGGDNQKWLLDPLPSPGPGWVLIQNGGTGKFLCSTPSGDIGTADGPETVYDYSVQWRFIQREYTGVYHVVNRATGAYLRQIGTSMPSIGLAEENDDELKDWWMLETYDNSEIGLASIISRWTGNVLDHYGGVSVQALDNNTENSYRSWAIIPARDWLTSFSLVNGQGGLCLAAQYAREETRLSTTANVNDFHAQWVFRKPSGSSGYTIQNKYNNHYVGGTSARWELVVCCNKYFGIRNTSTQKYLAIEDGQVTFQDQDMTDRKQCWELCSGRATDTSGNDYDLIYMDDDLLEVMIPWVGDKQGDLKHYIEKRATKKPPKDKGGWQLPAAGLIKKPKFNDIRQLLQELIEQWEWDVVNEEREQIQTLVSIDEAEARRLLGRRPHPDIVAAYQRSRSSTLFRIDRQGYFNIAGDRYVNIQGQYGDDSYFHIALPVGVRFGREQIRRFLRDSLDRSTSVTITPTTCKPPSGGPDYNRDPDSDGDNSWIKWTIAVVGTSAIKHSEL", "values": [
      {"measurement": "glycan array binding signal (z-score)", "setting": "[1]", "value": 1.39},
      {"measurement": "glycan array binding signal (z-score)", "setting": "[2]", "value": 0.598},
      {"measurement": "glycan array binding signal (z-score)", "setting": "[3]", "value": 1.23},
      {"measurement": "glycan array binding signal (z-score)", "setting": "[4]", "value": 1.07},
      {"measurement": "glycan array binding signal (z-score)", "setting": "[5]", "value": 0.08},
      {"measurement": "glycan array binding signal (z-score)", "setting": "[6]", "value": 0.089},
      {"measurement": "glycan array binding signal (z-score)", "setting": "[7]", "value": 0.142},
      {"measurement": "glycan array binding signal (z-score)", "setting": "[8]", "value": 0.603},
      {"measurement": "glycan array binding signal (z-score)", "setting": "[9]", "value": 0.686},
      {"measurement": "glycan array binding signal (z-score)", "setting": "[10]", "value": 1.32},
      {"measurement": "glycan array binding signal (z-score)", "setting": "[11]", "value": 1.96},
      {"measurement": "glycan array binding signal (z-score)", "setting": "[12]", "value": 0.199},
      {"measurement": "glycan array binding signal (z-score)", "setting": "[13]", "value": 0.849},
      {"measurement": "glycan array binding signal (z-score)", "setting": "[14]", "value": -0.054},
      {"measurement": "glycan array binding signal (z-score)", "setting": "[15]", "value": 2.12},
      {"measurement": "glycan array binding signal (z-score)", "setting": "[16]", "value": 0.815},
      {"measurement": "glycan array binding signal (z-score)", "setting": "[17]", "value": -0.082},
      {"measurement": "glycan array binding signal (z-score)", "setting": "Gal(b1-3)GlcNAc6S", "value": -0.281},
      {"measurement": "glycan array binding signal (z-score)", "setting": "[18]", "value": -0.466},
      {"measurement": "glycan array binding signal (z-score)", "setting": "[19]", "value": -0.347},
      {"measurement": "glycan array binding signal (z-score)", "setting": "[20]", "value": -0.361},
      {"measurement": "glycan array binding signal (z-score)", "setting": "[21]", "value": -0.438},
      {"measurement": "glycan array binding signal (z-score)", "setting": "[22]", "value": -0.469},
      {"measurement": "glycan array binding signal (z-score)", "setting": "[23]", "value": -0.201},
      {"measurement": "glycan array binding signal (z-score)", "setting": "[24]", "value": 0.35},
      {"measurement": "glycan array binding signal (z-score)", "setting": "[25]", "value": -0.431},
      {"measurement": "glycan array binding signal (z-score)", "setting": "[26]", "value": -0.294},
      {"measurement": "glycan array binding signal (z-score)", "setting": "[27]", "value": -0.348},
      {"measurement": "glycan array binding signal (z-score)", "setting": "Gal(b1-4)Gal", "value": -0.402},
      {"measurement": "glycan array binding signal (z-score)", "setting": "[28]", "value": 0.803}
    ]}
  ]
}
